{"source": "paper PMC7819943", "about": "“Rice protein-binding microarrays: a tool to detect cis-acting elements near promoter regions in rice”", "note": "Some of the results follow.", "data": [{"molecular_target": "T1, OsWOX13 (Oryza sativa, UniProt Q5QMM3 1-267)", "T1 sequence": "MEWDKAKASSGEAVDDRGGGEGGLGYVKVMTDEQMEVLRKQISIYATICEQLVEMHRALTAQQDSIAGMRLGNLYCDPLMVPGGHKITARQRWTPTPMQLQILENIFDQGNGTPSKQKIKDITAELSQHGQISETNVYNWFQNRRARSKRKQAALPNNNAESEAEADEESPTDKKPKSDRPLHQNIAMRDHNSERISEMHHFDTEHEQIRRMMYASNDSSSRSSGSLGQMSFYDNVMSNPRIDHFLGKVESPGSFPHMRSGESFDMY", "test": "protein-binding microarray (RPBM); PBS, 2% BSA, 51.3 ng/ul salmon testes DNA, 50 uM zinc acetate, 200 nM TF, 25 C, 1 h; high values mean tight binding", "conditions": "protein: recombinant; tags: N-terminal polyhistidine and DsRed monomer fusion (pET32a); label: CyDye5-dUTP incorporated in the synthesized complementary strand; 3' TTTTT single-stranded linker to array surface; dsDNA, one strand shown", "how_it_was_run": "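An Axon 4000B scanner gave the binding signal as per-feature fluorescence intensity in arbitrary units. This followed washing of a custom Agilent array that had been incubated for 1 h at 25 °C with 200 nM protein in PBS, 2% BSA, salmon testes DNA and 50 µM zinc acetate. The proteins were transcription factors fused at the N-terminus to polyhistidine and DsRed, expressed in E. coli BL21-CodonPlus and purified on Ni–NTA.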", "values": [{"sequence": "CATCCATCACATATTTTACAGTGTCGCTATTCTCAATTAACGGAGTCACCTAGTGCAG", "binding signal": "4100 fluorescence intensity (a.u.)"}, {"sequence": "GCGACACAGACTGATGGGCTTAACTGGGCCCACGTCACTACGGAGTCACCTAGTGCAG", "binding signal": "5330 fluorescence intensity (a.u.)"}, {"sequence": "CGGCGGCGGTGGTGGGGAGGAGGAGGGCCAGCGGCAGCAACGGAGTCACCTAGTGCAG", "binding signal": "4280 fluorescence intensity (a.u.)"}, {"sequence": "CTGAATTCTGACATGAATGGCAATGGATAATTTTGCAGCACGGAGTCACCTAGTGCAG", "binding signal": "5540 fluorescence intensity (a.u.)"}, {"sequence": "GTTACGGCTGTCAATTATGAAATGAATCGGAGAGAATATCCGGAGTCACCTAGTGCAG", "binding signal": "10300 fluorescence intensity (a.u.)"}, {"sequence": "CTAGATATAACTGCACACATTTATATTATATAATCTTTGACGGAGTCACCTAGTGCAG", "binding signal": "4590 fluorescence intensity (a.u.)"}, {"sequence": "TGGAGGAATTGATTGTAGACCCTTGAAGGGAGTACAATAACGGAGTCACCTAGTGCAG", "binding signal": "10100 fluorescence intensity (a.u.)"}, {"sequence": "TAGAGACATATGTTAATTACCTTGTACATGAATTTTATTTCGGAGTCACCTAGTGCAG", "binding signal": "8060 fluorescence intensity (a.u.)"}, {"sequence": "GTAATGCCTCCTGTTAATTTTAATTGGCAAGCATAAGTGGCGGAGTCACCTAGTGCAG", "binding signal": "12300 fluorescence intensity (a.u.)"}, {"sequence": "TTTCAATCTTACAAAATTTTGGCAATTCAAAATTTGGATACGGAGTCACCTAGTGCAG", "binding signal": "14800 fluorescence intensity (a.u.)"}, {"sequence": "TAACTAAATTTACAATTCTTAATTATGATAGTTTCAGCCACGGAGTCACCTAGTGCAG", "binding signal": "37700 fluorescence intensity (a.u.)"}, {"sequence": "CCATGAGTTCCTTTCAATCAATGCCTAACTCTCTCTCTCTCGGAGTCACCTAGTGCAG", "binding signal": "13400 fluorescence intensity (a.u.)"}, {"sequence": "ACATTTAACATCTTTAATTTTCTAAACCGGATAAATAACCCGGAGTCACCTAGTGCAG", "binding signal": "7000 fluorescence intensity (a.u.)"}, {"sequence": "ACTGCTAATTAACCCTCTATAAATGCATGCCTCTCACCACCGGAGTCACCTAGTGCAG", "binding signal": "30400 fluorescence intensity (a.u.)"}, {"sequence": "CTCTGACTGGGCTTGACATCCTGCTATAGTCAAGCTGAAACGGAGTCACCTAGTGCAG", "binding signal": "9600 fluorescence intensity (a.u.)"}, {"sequence": "TTCATGATTAATTAAGTAATAATTAAAATAAAATTTTAAACGGAGTCACCTAGTGCAG", "binding signal": "22800 fluorescence intensity (a.u.)"}, {"sequence": "TACTTCGTGATTGTTTGATTATATGGAGAAGATTGAAGAACGGAGTCACCTAGTGCAG", "binding signal": "27900 fluorescence intensity (a.u.)"}, {"sequence": "TTCTGGTACATTGACAGTGAATTACACGTTCTATTTATAGCGGAGTCACCTAGTGCAG", "binding signal": "3700 fluorescence intensity (a.u.)"}, {"sequence": "ACAATTGATTTCGAACTCAATCTCGTCAGTTCCCCTTGATCGGAGTCACCTAGTGCAG", "binding signal": "39600 fluorescence intensity (a.u.)"}, {"sequence": "CGAGATAATTAAAGGATAATAAAATTTGGCGGGGAGAAGCCGGAGTCACCTAGTGCAG", "binding signal": "19500 fluorescence intensity (a.u.)"}, {"sequence": "GCTTTATGTGATTAAATCATGCTAACAGACCTGAGATATGCGGAGTCACCTAGTGCAG", "binding signal": "16800 fluorescence intensity (a.u.)"}, {"sequence": "TTAGTGATTTTGACCCAATTTTATCCAACGTTACGGCTGACGGAGTCACCTAGTGCAG", "binding signal": "5500 fluorescence intensity (a.u.)"}, {"sequence": "CGGTTTTGAGCTAATTAGACTAATCTTCCATTTGACGGACCGGAGTCACCTAGTGCAG", "binding signal": "15500 fluorescence intensity (a.u.)"}, {"sequence": "CTTTCAATTTGGAGATTCAAAATTAACTCTCAATATCCAGCGGAGTCACCTAGTGCAG", "binding signal": "4870 fluorescence intensity (a.u.)"}, {"sequence": "CTACACAATGGTGATTGATGCTTTCTGTAGGAAAGGGGACCGGAGTCACCTAGTGCAG", "binding signal": "15200 fluorescence intensity (a.u.)"}, {"sequence": "CCTGACAGGTAAGGCCCACATGACAGAGAGATACGTTCCTCGGAGTCACCTAGTGCAG", "binding signal": "28600 fluorescence intensity (a.u.)"}, {"sequence": "AGCAAATTTTGCCATGTCACATCGACATCATCCCGGCACGCGGAGTCACCTAGTGCAG", "binding signal": "4070 fluorescence intensity (a.u.)"}, {"sequence": "ATTTACCTAATTATAACCATGCCATTACAATTTCACAAATCGGAGTCACCTAGTGCAG", "binding signal": "3490 fluorescence intensity (a.u.)"}, {"sequence": "ATCGCAAGATTGACTCTCCTCACCCATGTGCGAGTGATTTCGGAGTCACCTAGTGCAG", "binding signal": "11700 fluorescence intensity (a.u.)"}, {"sequence": "CTATAACAGGCAATAATGGCAAGCATCTTATAAGAAAATTCGGAGTCACCTAGTGCAG", "binding signal": "4330 fluorescence intensity (a.u.)"}, {"sequence": "CTTGTCAATCTACAGAGAGTCCACGAGTTAGTAGTATGTGCGGAGTCACCTAGTGCAG", "binding signal": "8690 fluorescence intensity (a.u.)"}, {"sequence": "ACACTATAAATAGACAAAATACTTGGCTATACCTCTACCTCGGAGTCACCTAGTGCAG", "binding signal": "7490 fluorescence intensity (a.u.)"}, {"sequence": "AGTGATTAGTGAAGCAAAGGAAGACGACGAGTGACACGAGCGGAGTCACCTAGTGCAG", "binding signal": "21900 fluorescence intensity (a.u.)"}, {"sequence": "ACCTTTCTTTATTTGCCTCCCTAATTGGATCGATACAAAACGGAGTCACCTAGTGCAG", "binding signal": "6490 fluorescence intensity (a.u.)"}, {"sequence": "TAAATTGTCTAATTTCATAGTAGAGTGACATAAAGTGTCCCGGAGTCACCTAGTGCAG", "binding signal": "18600 fluorescence intensity (a.u.)"}, {"sequence": "ACCCTTTCAATCATCCTCCTCCAGCAGAGCAAGCAGCCAACGGAGTCACCTAGTGCAG", "binding signal": "11000 fluorescence intensity (a.u.)"}, {"sequence": "TATACTAATTGTAGTACTCATAGAAATACGTATGATGCCGCGGAGTCACCTAGTGCAG", "binding signal": "8790 fluorescence intensity (a.u.)"}, {"sequence": "GAAAAGATTTGATTATTCAAGATCCAACCACTAGGGACAACGGAGTCACCTAGTGCAG", "binding signal": "8030 fluorescence intensity (a.u.)"}, {"sequence": "CGAGAGATAGATTGTTCAATGAGAGTGAAATGAACAAGAGCGGAGTCACCTAGTGCAG", "binding signal": "6930 fluorescence intensity (a.u.)"}, {"sequence": "ATTTACAAATTAATTTACGTTTACAAATATGCCGTTTCGCCGGAGTCACCTAGTGCAG", "binding signal": "42300 fluorescence intensity (a.u.)"}, {"sequence": "ACAAGATGATTTAACAGGTTATACCAAGTCAAAGTGCCAACGGAGTCACCTAGTGCAG", "binding signal": "19900 fluorescence intensity (a.u.)"}, {"sequence": "ATAATGATGTTTCGATCGCTAATTAACCGCTACTACGTATCGGAGTCACCTAGTGCAG", "binding signal": "7900 fluorescence intensity (a.u.)"}, {"sequence": "TCAAGGGGATTGGATTGTTAGAGATGGAGATTTCAGAGAACGGAGTCACCTAGTGCAG", "binding signal": "6870 fluorescence intensity (a.u.)"}, {"sequence": "GGAGCAATTAAGCTTAAAAGATTCGTCTAACAATTTACACCGGAGTCACCTAGTGCAG", "binding signal": "4640 fluorescence intensity (a.u.)"}, {"sequence": "GGCCGCAATTAATTAAGTCAACACGAACCGCAGCCTCCCACGGAGTCACCTAGTGCAG", "binding signal": "16500 fluorescence intensity (a.u.)"}, {"sequence": "AATATGTAATTTGTTTAACACTTTAAATGTGCGTCCATATCGGAGTCACCTAGTGCAG", "binding signal": "11300 fluorescence intensity (a.u.)"}, {"sequence": "ACTATAGATTTAGTGCCAATTTAATCACCAAACCATAGCACGGAGTCACCTAGTGCAG", "binding signal": "7880 fluorescence intensity (a.u.)"}, {"sequence": "TTCATACAATTATTGGCTATAAGGAAACGACGTGTCCCTACGGAGTCACCTAGTGCAG", "binding signal": "5160 fluorescence intensity (a.u.)"}, {"sequence": "ATAATTAATCCAAATCAATCAAGCTAAGCTACGTCTCCTTCGGAGTCACCTAGTGCAG", "binding signal": "34600 fluorescence intensity (a.u.)"}, {"sequence": "TAAAACGAGTGACAAATAATTAATTGCTACAGCTTAAAAGCGGAGTCACCTAGTGCAG", "binding signal": "15600 fluorescence intensity (a.u.)"}, {"sequence": "CGTGGATTAATTAGTTGGCAAAAGCTAAGTACAAGTCATTCGGAGTCACCTAGTGCAG", "binding signal": "15300 fluorescence intensity (a.u.)"}, {"sequence": "TCATTTATTAAAATAGACGTAACTTTCTCATACGGACTCGCGGAGTCACCTAGTGCAG", "binding signal": "3210 fluorescence intensity (a.u.)"}, {"sequence": "TGGTGATGATGCGATTTACACAGATGGCGGCGCTGGTGTGCGGAGTCACCTAGTGCAG", "binding signal": "4240 fluorescence intensity (a.u.)"}, {"sequence": "TAATACCCCTTAATTAATAATACATAGTTGGATGTGGGATCGGAGTCACCTAGTGCAG", "binding signal": "4620 fluorescence intensity (a.u.)"}]}]}
